# This is one part of the list.
# Key:
# Assay in all cases: glycan array binding signal (z-score within array); higher = stronger binding
# Details in all cases: glycan notation: IUPAC condensed, linker removed
# [1] = target: Gal(b1-4)GlcNAc(b1-2)Man(a1-6)[Man(a1-3)]Man(b1-4)GlcNAc(b1-4)GlcNAc
# Outline: (§1)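 Glycan array binding is given as a within-array Z-score, which can be read as non-binding when negative. The arrays, 3228 of them, came from the Consortium for Functional Glycomics database and were retained only where the protein sequence was available. Z-scores were averaged across arrays of the same protein sequence at different concentrations or buffers and across linkers.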
# [2] = target: Gal(b1-4)GlcNAc(b1-2)[Gal(b1-4)GlcNAc(b1-4)]Man(a1-3)[Gal(b1-4)GlcNAc(b1-2)Man(a1-6)]Man(b1-4)GlcNAc(b1-4)GlcNAc
# Outline: as §1
# [3] = target: Gal(b1-4)GlcNAc(b1-2)[Gal(b1-4)GlcNAc(b1-4)]Man(a1-3)[Gal(b1-4)GlcNAc(b1-2)[Gal(b1-4)GlcNAc(b1-6)]Man(a1-6)]Man(b1-4)GlcNAc(b1-4)GlcNAc
# Outline: as §1
# [4] = target: Gal(b1-4)GlcNAc(b1-2)[Gal(b1-4)GlcNAc(b1-4)]Man(a1-3)[GlcNAc(b1-4)][Gal(b1-4)GlcNAc(b1-2)Man(a1-6)]Man(b1-4)GlcNAc(b1-4)GlcNAc
# Outline: as §1
# [5] = target: Gal(b1-4)GlcNAc(b1-2)[Gal(b1-4)GlcNAc(b1-4)]Man(a1-3)[GlcNAc(b1-4)][Gal(b1-4)GlcNAc(b1-2)[Gal(b1-4)GlcNAc(b1-6)]Man(a1-6)]Man(b1-4)GlcNAc(b1-4)GlcNAc
# Outline: as §1
# [6] = target: Gal(b1-4)GlcNAc(b1-2)[Gal(b1-4)GlcNAc(b1-6)]Man(a1-6)[Gal(b1-4)GlcNAc(b1-2)Man(a1-3)]Man(b1-4)GlcNAc(b1-4)GlcNAc
# Outline: as §1
# [7] = target: Gal(b1-4)GlcNAc(b1-2)[Gal(b1-4)GlcNAc(b1-6)]Man(a1-6)[Gal(b1-4)GlcNAc(b1-2)Man(a1-3)]Man(b1-4)GlcNAc(b1-4)[Fuc(a1-6)]GlcNAc
# Outline: as §1
# [8] = target: Gal(b1-4)GlcNAc(b1-2)[Gal(b1-4)GlcNAc(b1-6)]Man(a1-6)[GlcNAc(b1-4)][Gal(b1-4)GlcNAc(b1-2)Man(a1-3)]Man(b1-4)GlcNAc(b1-4)GlcNAc
# Outline: as §1
# [9] = target: Gal(b1-4)GlcNAc(b1-2)[Gal(b1-4)GlcNAc(b1-6)]Man(a1-6)[GlcNAc(b1-4)][Gal(b1-4)GlcNAc(b1-2)[Gal(b1-4)GlcNAc(b1-4)]Man(a1-3)]Man(b1-4)GlcNAc(b1-4)[Fuc(a1-6)]GlcNAc
# Outline: as §1
# [10] = target: Gal(b1-4)GlcNAc(b1-3)Gal(b1-3)GalNAc
# Outline: as §1
# [11] = target: Gal(b1-4)GlcNAc(b1-3)Gal(b1-3)GlcNAc
# Outline: as §1
# [12] = target: Gal(b1-4)GlcNAc(b1-3)Gal(b1-4)Glc
# Outline: as §1
# [13] = target: Gal(b1-4)GlcNAc(b1-3)Gal(b1-4)GlcNAc
# Outline: as §1
# [14] = target: Gal(b1-4)GlcNAc(b1-3)Gal(b1-4)GlcNAc(b1-2)Man(a1-3)[Gal(b1-4)GlcNAc(b1-3)Gal(b1-4)GlcNAc(b1-2)Man(a1-6)]Man(b1-4)GlcNAc(b1-4)GlcNAc
# Outline: as §1
# [15] = target: Gal(b1-4)GlcNAc(b1-3)Gal(b1-4)GlcNAc(b1-2)Man(a1-3)[Gal(b1-4)GlcNAc(b1-3)Gal(b1-4)GlcNAc(b1-2)Man(a1-6)]Man(b1-4)GlcNAc(b1-4)[Fuc(a1-6)]GlcNAc
# Outline: as §1
# [16] = target: Gal(b1-4)GlcNAc(b1-3)Gal(b1-4)GlcNAc(b1-2)[Gal(b1-4)GlcNAc(b1-3)Gal(b1-4)GlcNAc(b1-6)]Man(a1-6)[Gal(b1-4)GlcNAc(b1-3)Gal(b1-4)GlcNAc(b1-2)Man(a1-3)]Man(b1-4)GlcNAc(b1-4)GlcNAc
# Outline: as §1
# [17] = target: Gal(b1-4)GlcNAc(b1-3)Gal(b1-4)GlcNAc(b1-2)[Gal(b1-4)GlcNAc(b1-3)Gal(b1-4)GlcNAc(b1-6)]Man(a1-6)[Gal(b1-4)GlcNAc(b1-3)Gal(b1-4)GlcNAc(b1-2)Man(a1-3)]Man(b1-4)GlcNAc(b1-4)[Fuc(a1-6)]GlcNAc
# Outline: as §1
# [18] = target: Gal(b1-4)GlcNAc(b1-3)Gal(b1-4)GlcNAc(b1-3)Gal(b1-4)GlcNAc
# Outline: as §1
binder,measurement,setting,value
PX15618A-bth-503-24-503 (Bacteroides thetaiotaomicron) (protein) NKSEDKLSGDDFWAQGNETNAEAFLLSIYNSFRNATMSQRPFLTYSGDMRCAPITAYSTGDKYVAYLANNDMGELRNTYPDDARGGLIMQWDVFYTAIQDANILLAEIDKVPGMDELKRSRFKAEAIFMRSLSYFFIVRAFGDVPYYTNAYNEAPLPRTNMVIVLQNCLADLQPLLDDDPGAEVLPWSYSSYSSKGIRASRGSVIALMMHINLWLVQFDAQNKEQYYRNVVSLGEELERNNGAYSLLDINRSSVIFAGGSDEGLFEIAQNINFNEIFMMNAKFSDNVSYSCLNKSMPLFCYSGDYLMTLFPMYEDDARKELWFDEKIYSTSVSSSAPKEIKKFWNIDTYGNGTITSNSGNQIVFRYAGALLLYAEALAALGTNDTKACELLNRVRNRAHASEINTSGSELMDAIFWERCRELIGEGHYYYDLVRTGKVYNRNYCMNPMTRTNFNVGAWTWPIHRNALKNNTQIGLNLFWE,glycan array binding signal (z-score),[1],12.1
same,glycan array binding signal (z-score),[2],0.158
same,glycan array binding signal (z-score),[3],-0.519
same,glycan array binding signal (z-score),[4],-0.247
same,glycan array binding signal (z-score),[5],-0.272
same,glycan array binding signal (z-score),[6],1.01
same,glycan array binding signal (z-score),[7],1.93
same,glycan array binding signal (z-score),[8],0.56
same,glycan array binding signal (z-score),[9],0.015
same,glycan array binding signal (z-score),[10],-0.241
same,glycan array binding signal (z-score),[11],-0.548
same,glycan array binding signal (z-score),[12],-0.181
same,glycan array binding signal (z-score),[13],-0.173
same,glycan array binding signal (z-score),[14],0.547
same,glycan array binding signal (z-score),[15],0.001
same,glycan array binding signal (z-score),[16],0.463
same,glycan array binding signal (z-score),[17],0.652
same,glycan array binding signal (z-score),[18],-0.233

# From the supplement of paper PMC8728848
